According to PubChem BioAssay AID624417 (National Center for Advancing Translational Sciences (NCATS), 2012):
Several values for one entry are separate records, joined by “and”; a condition that tells them apart may be missing. Equal entries are not always repeated. The whole screen tested about 410,000 compounds, of which about 6,400 (1.6%) were called active. This list was built around the results that the source calls inconclusive (neither active nor inactive); the mix of calls is not that of the screen. The call rests on the fitted dose curve; in most records, active means well fitted inhibition curve with a large enough effect; inconclusive means small, poorly fitted or top-dose-only effect; inactive means no such curve, though single readings can be large or run the other way. Potencies beside an inconclusive call are fits to weak or partial responses and may not hold up.

These compounds were tested against Glucagon-like peptide 1 receptor (Homo sapiens) (UniProt P43220) (assay: qHTS of GLP-1 Receptor Inverse Agonists (Inhibition Mode)). Details: HEK293 GLP-1R CRE-luciferase, luminescence, 24 h, GLP-1R form is constitutively active; series mostly up to 38.3 µM.
UniProt P43220, sequence (P43220 whole entry, looked up): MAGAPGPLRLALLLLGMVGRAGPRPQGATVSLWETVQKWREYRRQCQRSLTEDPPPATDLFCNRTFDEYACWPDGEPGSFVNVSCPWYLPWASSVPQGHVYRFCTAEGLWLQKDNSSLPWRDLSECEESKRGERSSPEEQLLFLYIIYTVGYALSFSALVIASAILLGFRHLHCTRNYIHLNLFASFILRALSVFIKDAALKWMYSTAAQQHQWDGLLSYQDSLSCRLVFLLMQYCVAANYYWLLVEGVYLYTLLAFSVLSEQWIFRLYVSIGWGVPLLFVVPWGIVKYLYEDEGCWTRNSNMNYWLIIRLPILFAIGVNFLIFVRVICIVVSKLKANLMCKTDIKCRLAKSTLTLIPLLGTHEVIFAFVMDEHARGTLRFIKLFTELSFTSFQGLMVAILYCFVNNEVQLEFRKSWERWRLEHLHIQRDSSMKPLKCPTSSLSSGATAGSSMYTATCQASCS
Method in brief: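 HEK293 cells stably co-expressing constitutively active GLP-1R and a cAMP-responsive luciferase reporter were seeded in DMEM with 10% Nu serum, given compounds after 12 h, and incubated 24 h at 37 deg C. Luminescence was then read.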
Further: nearly all actives have a fitted effect of over 55% in size.
Potency means the concentration at half of the fitted maximal effect; tags describe the fitted curve by direction and shape.

Potency, inactive:
CCOC(=O)c1c(C)oc2nc(C)nc(NCC3CCN(Cc4ccccc4C)CC3)c12, Cc1ccc(SCC(=O)NC2CC3CCC(C2)N3C)cc1 (stereo unspecified), CCN1CCN(C(CCc2ccccc2)C(=O)NC2CCCCC2)CC1 (stereo unspecified), O=C(NCC(c1cccnc1)N1CCOCC1)C(=O)Nc1ccc(Cl)cc1 (stereo unspecified), COc1cccc(-c2cn3c(n2)sc2cc(C(=O)NCc4ccccc4F)ccc23)c1, CCN(CCCNC(=O)C1CCN(S(=O)(=O)N2CCC3(CC2)OCCO3)CC1)c1ccccc1, NC(=O)c1cc(S(=O)(=O)N2CCN(c3ccc([N+](=O)[O-])cc3)CC2)cs1, O=C(NCCC1=CCCCC1)C1CCN(C(=O)N2CCOc3ccccc32)CC1, Cc1c(Cl)cccc1NC(=O)CSc1nc(=O)[nH]c2c1CCCC2, CCn1cc(C(=O)NCCCN2CC(C)CC(C)C2)c(=O)c2cc(S(=O)(=O)N(C)C3CCCCC3)ccc21 (stereo unspecified), O=C(Nc1ccccc1C(=O)N1CCCC1)c1cccc(S(=O)(=O)N2CCCCCC2)c1, CCOc1ccc(-n2cnnn2)cc1S(=O)(=O)Nc1c(C)cccc1C, Cc1nc(N2CCOCC2)c2c(C(=O)N(C)c3ccccc3)c(C)oc2n1, COc1ccc(-c2nc(CC(=O)O)cs2)cc1, CCCN1CCN(CCCNC(=O)c2ccc3c(c2)sc2nc(-c4ccc(OCC)cc4)cn23)CC1

Potency, inconclusive:
O=C(/C=C/c1cccc([N+](=O)[O-])c1)NCCN1C(=O)S/C(=C\c2cccnc2)C1=O 12.6 µM [inhibitor, single point], CC(C)(C)NC(=O)C(c1ccc(F)cc1)N(Cc1ccco1)C(=O)Cn1nnc(-c2cccs2)n1 (stereo unspecified) 2.24 µM [inhibitor, full curve, poor fit], O=C(CSc1nc2ccccc2[nH]1)N1c2ccccc2Sc2ccccc21 11.2 µM [inhibitor, single point], Cc1nn(Cc2ccc(Cl)cc2)c(C)c1NC(=O)CCCn1nc([N+](=O)[O-])c(Cl)c1C 28.2 µM [inhibitor, single point], COc1cc(NC(=O)c2cc(C)on2)cc(C(=O)Nc2cccc(C(F)(F)F)c2)c1 28.2 µM [inhibitor, single point] and 8.91 µM [inhibitor, partial curve, poor fit], O=C(Cc1ccccc1)NCCSCc1ccc(Cl)cc1 7.94 µM [inhibitor, partial curve, poor fit], O=C(O)c1cc(N/N=C/c2ccc3c(c2)OCCO3)ccc1Cl 17.8 µM [inhibitor, single point], CC(C)(C)NC(=O)NC(=O)CSc1ncc(C(F)(F)F)cc1Cl 11.2 µM [inhibitor, single point], COCCNc1nc(-c2cc(-c3ccccc3)on2)cc(C(C)C)n1 28.2 µM [inhibitor, single point], O=C1CC2(CCN(C(=O)c3ccc(Br)cc3)CC2)Oc2ccccc21 11.2 µM [inhibitor, partial curve, poor fit], CCOC(=O)Nc1nnc(Cc2ccc(Cl)c(Cl)c2)s1 14.1 µM [inhibitor, single point], Cc1ccc(C2(SCC(N)C(=O)O)c3ccccc3-c3ccccc32)cc1 (stereo unspecified) 10 µM [inhibitor, partial curve, poor fit], COc1ccc(C2=C(C)C(=O)N(Cc3ccc(C(=O)Nc4ccc(F)cc4C)cc3)S2(=O)=O)cc1 2.51 µM [inhibitor, partial curve, poor fit], CCN(CC)CCn1c(=N)n(CCOc2ccccc2Cl)c2ccccc21 11.2 µM [inhibitor, partial curve, poor fit], O=C1CN(C(=O)c2ccc(S(=O)(=O)N3CCCCC3)cc2)C(c2ccc(F)cc2)c2cc(Cl)ccc2N1 (stereo unspecified) 28.2 µM [inhibitor, single point], CSc1cccc(NC(=O)CN(c2cc(C)ccc2C)S(C)(=O)=O)c1 7.08 µM [inhibitor, partial curve, poor fit], O=C(CCC1CCCCC1)NNC(=O)NC12CC3CC(CC(C3)C1)C2 7.94 µM [inhibitor, partial curve, poor fit], C=CC[C@@H](Cc1ccc(F)cc1)C(=O)OC[C@H]1CCCN1C(=O)[C@H](CC=C)CC(=O)N(CCO)Cc1ccccc1 11.2 µM [inhibitor, single point], COc1cccc(CN(C)C(=O)c2cc(S(=O)(=O)NC3CCCCC3)ccc2C)c1 20 µM [inhibitor, partial curve, poor fit], Cc1ccc(S(=O)(=O)N2CCN(C(=O)CN3CCCSc4ccccc43)CC2)cc1 10 µM [inhibitor, partial curve, poor fit], COc1ccc(-c2c[n+]3c4n2CCCCC4=C(c2ccc(Br)cc2)C3)cc1 28.2 µM [inhibitor, single point], O=C(N1CCCC1)C12CC3CCC(CC(C3)C1)C2 10 µM [inhibitor, partial curve], Cc1cccc(C)c1NC(=O)CCCSc1nnc(-c2ccc(F)cc2)n1-c1ccccc1 11.2 µM [inhibitor, partial curve, poor fit], Cc1cccc2c(C(=O)N3CCN(c4ccccn4)CC3)cc(-c3cccc(Br)c3)nc12 6.31 µM [inhibitor, partial curve, poor fit], O=C(N/N=C/c1cccc2ccccc12)c1cccc(F)c1 28.2 µM [inhibitor, single point], O=C(CSc1nnc(-c2ccco2)n1Cc1ccccc1)c1ccccc1 31.6 µM [inhibitor, single point], COC(=O)c1c(-c2cccc3ccccc23)csc1NC(=O)Cc1ccc(OC)c(OC)c1 0.794 µM [inhibitor, full curve, poor fit], CS(=O)(=O)N(CC(=O)NCCSCc1ccccc1)c1ccccc1Cl 25.1 µM [inhibitor, partial curve, poor fit], COc1cccc(NC(=O)CS(=O)(=O)Cc2nc(-c3ccc(C)cc3)oc2C)c1 7.08 µM [inhibitor, partial curve, poor fit], c1ccc(CN(Cc2cccs2)C(c2cccs2)c2nnnn2C2CCCC2)cc1 (stereo unspecified) 12.6 µM [inhibitor, partial curve, poor fit], CC(C)c1ccc(CN(C(=O)/C=C/c2ccco2)C2CCS(=O)(=O)C2)cc1 (stereo unspecified) 10 µM [inhibitor, single point], COc1cc(CSc2ncc(CO)n2Cc2ccc(C)cc2)cc(OC)c1 7.94 µM [inhibitor, partial curve, poor fit], CCCSC1=C(C#N)C(c2cccnc2)C(C(=O)OCC)=C(c2ccccc2)N1 (stereo unspecified) 12.6 µM [inhibitor, single point], CC(C)(C)Cc1c(-c2ccco2)nc2ccc(Cl)cn12 28.2 µM [inhibitor, single point], COc1ccc(CNC(=O)C2CC(c3cc(C(F)(F)F)cc(C(F)(F)F)c3)=NO2)cc1 (stereo unspecified) 3.98 µM [inhibitor, full curve, poor fit], Cc1ccc([C@H]2C[C@H](n3cc(COC(=O)c4ccccc4)nn3)[C@@H](O)CN2C(=O)C2CCCCC2)cc1 28.2 µM [inhibitor, single point], Brc1cccc(OCCCN2CCCCCC2)c1 14.1 µM [inhibitor, single point], CCC1CCc2sc(C(=O)N(C)CC(=O)Nc3cccc(OC)c3)cc2C1 (stereo unspecified) 10 µM [inhibitor, partial curve, poor fit], CCN(CC)C(=O)c1ccc(-c2cccs2)s1 28.2 µM [inhibitor, single point], Cc1cc(C)cc(OCC(=O)N(Cc2ccc(Cl)cc2)C2CCS(=O)(=O)C2)c1 (stereo unspecified) 22.4 µM [inhibitor, single point], Cc1nc(-c2ccc(F)cc2)sc1CCNC(=O)c1ccc(OC(C)C)cc1 11.2 µM [inhibitor, single point], COc1ccc(NC(=O)NC2CCCCCCC2)c(OC)c1 11.2 µM [inhibitor, single point], CCN(CC)c1ccc(-c2nnc(SCC(=O)Nc3ccccc3C#N)n2-c2ccccc2)cc1 8.91 µM [inhibitor, partial curve, poor fit], Cc1ccccc1CC1(CO)CCCN(C(=O)c2cc(-c3ccccc3)no2)C1 (stereo unspecified) 28.2 µM [inhibitor, single point], O=C(C[C@@H]1C/C=C\C[C@@H](Cc2ccc(F)cc2)C(=O)OC[C@@H]2CCCN2C1=O)N[C@H](CO)Cc1ccccc1 10 µM [inhibitor, partial curve, poor fit], COc1ccccc1CCNC(=O)COc1cccc2c1OC(C)(C)C2 10 µM [inhibitor, partial curve, poor fit]
